Data: the supplement of paper PMC10126150
Values marked as one replicate rest on one cluster of the flow cell; about a third of the high ones do not repeat.

System: ATP
Assay: switch fluorescence ratio, 500 uM ATP over buffer (Cy3 cluster intensity, sum of 5 cycles each) (fold (ratio)); higher = stronger signal-on switching upon ATP binding; sequences stand for … in TCGTCGGCAGCGTCAGATGTGTATAAGAGACAGTTTTTTTTTTTTTTTTTTTTTTTTT…TC
Details: aptamer strand: ATP DNA aptamer (quencher-CACCTGGGGGAGTATTGCGGAGGAAGG + anchor), 100 nM annealed; ATP concentration: 500 uM; one replicate
Procedure, shortened: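 Exposure to 500 uM ATP lasted 15 min at 22 °C before imaging, and a selection-buffer image was taken beforehand, for Cy3-labelled switching-strand clusters on a modified Illumina MiSeq flow-cell annealed to 100 nM quencher-labelled ATP aptamer. Five buffer/ATP cycles were run with NaOH stripping and re-annealing between them. The fluorescence ratio per cluster is summed target-cycle over summed buffer-cycle Cy3 intensity, averaged per switch-domain sequence. Clusters outside 100-1000 RFU were excluded.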

Sequence | switch fluorescence ratio
TGGGTACCTC | 1.09
TGCCCGTCAG | 0.992
TGTTATAAAG | 0.994
TCGGAAGG | 0.956
GAGTATAGCT | 1.05
TAGGGTTTT | 1
TGGTTAACCG | 1.01
TAGGACCTGC | 0.966
CCTATAATA | 0.997
GCATCCTTCA | 1.45
AAATATTTGC | 1
GCCGGAATAA | 2.56
GTAGTACGGA | 1.04
ATCCACCCCT | 1.11
ACAGTACCTT | 1.37
TTAGTAGTAA | 1.03
TACAGTTTGG | 0.938
CTTTTTGAGT | 1
TTAAAACAAT | 0.969
CCTGCTGCTA | 3.14
AAGCAGGCTG | 0.96
CAAGCATCCA | 1.01
TAAGGGGACT | 1.03
TGTAATTAGT | 1
TTGCCAGCAC | 1.11
ACTCCGGCCA | 3.75

Sequence | switch fluorescence ratio
GGGTGAGGCT | 0.981
ATACTAATC | 1.03
TTGTTCGGT | 0.971
ATGTTGACTG | 1.13
CCCTTAAACT | 1.04
TACCCGCTGG | 1.08
CAATTAAAG | 0.995
GCCTAGCAAA | 0.968
AGAGAATGCC | 0.982
TCATTGTGAT | 0.993
TATCTCTAAA | 1.02
AGTCAAAATA | 1.03
ACACCCCAGA | 1.35
AATCTTGCTG | 0.971
TTCTCGGGTC | 0.946
TATACATTC | 1
AGCTTAATCG | 0.965
CTGTCATTTC | 0.99
TAGAGATATG | 1.01
AGCGCGGGGA | 1.02
AGACCCAACG | 1.03
CTGTGCTAGC | 0.942
GGTCAGTTCG | 0.995
CGTACCCCGA | 1.02
AGTGGGGCGA | 1.16
TTAACATGA | 0.994

Sequence | switch fluorescence ratio
ACGGTGCTGG | 0.964
CGATTGCGAA | 0.987
AACACTCGAA | 0.989
GCATTAGCGA | 0.992
ACGGCCCGTG | 1.04
TCGAACCATC | 1.01
AAATGGCCTG | 1.05
CCATTCACTA | 1.03
CCAAGCAGTA | 1.82
CGAGCGTTAT | 1.28
GTCATCCGTT | 0.996
GAAATGAGT | 1.02
ACATGTTCGG | 0.979
TTGTAGGTGT | 1.07
GACCACTCTG | 1.05
ACTAGTTCGT | 1
TTGACTTACA | 1.31
TAAAGTGCAC | 0.993
TAAAGTTTTA | 0.992
GTTTGGCTGC | 1.02
ATATAGGTGT | 1.07
CATGCCGGTG | 1.03
GTCTAAGCCG | 0.997
CTGATGGTAC | 1.73
AAGTAAGTTC | 0.999
GTGAGTGGGA | 1.04

Sequence | switch fluorescence ratio
TACGGCACGT | 1.01
TCGGAGTACG | 1.01
CGTTACATGA | 1.02
GAAGAACATA | 1.02
GAGGTAAAGA | 1.05
TGCAGTGGCG | 0.968
CGGGTTAATT | 1
AGGTTTGAAC | 0.99
GATGGAGG | 0.984
GTCTTCCGAT | 1.17
TTTCCTATCA | 0.991
GGACGCCACC | 1.63
GGTACCATGT | 1.02
ACGCTCTAAC | 1.59
GGTTTAGGC | 1.05
ATTATTTGT | 0.983
GCTTAGAAAT | 0.98
AGGAGCCGTT | 0.983
GACGGTGG | 0.957
CTTTTACACC | 1.07
TGAGGTGATA | 1.03
AGACGCGAGT | 1.01
GCATAATTGA | 1.05
GCGTTTATCA | 1.05
TAGCGCTGCT | 0.981
ACAGGAGCTG | 1.04

Sequence | switch fluorescence ratio
CTGTTCAAAA | 1.02
TTGAGTGAGA | 1.04
TGGCAGCGCG | 1.01
CTTCTAGACA | 0.97
ACGAAAGGTC | 1.01
ATCAACTTTG | 0.998
CGATGTTGGC | 1.04
AATGTCTTCC | 1.84
GGAGTGCGCA | 1.02
ACTGCTCGAT | 1.09
ATTAAGTCCC | 1.02
AAGACTAGGA | 0.958
ATCAGGGTTG | 0.98
TTCTAACTAA | 1.12
CGGCTGAACG | 1.01
TTTGCTCCTG | 0.929
TCCGTCAGCT | 1.02
TCAGAACAGC | 0.991
GAAGTCCATC | 0.994
CGTGGAGCGC | 0.975
TGGGGAACGA | 1.04
TCTGCTCCGG | 1.13
GAGTGGTGGC | 1.05
AGGTGGCTA | 1
CCGTTGACGT | 1.08
AAATTGGCGT | 0.972

Sequence | switch fluorescence ratio
ACTTACCTGC | 1.27
TTTCATCTAT | 0.996
AAAACCCAAG | 1.09
GGGTATGAAT | 0.961
GTGTACGGGA | 1.05
GTCCTCAACG | 1.03
AAGTATAGGC | 1.07
TCCCCCCCAC | 1.58
TGGGCCAACC | 0.989
AAATCCGTCC | 1.5
TGTGACATTT | 1.04
AGTTATGTGT | 0.976
TGTTCTGGGT | 0.952
GGGTGATTG | 1.03
AAGTCGTAC | 1.03
CCGCGAGTGT | 1.54
CCCTTGGGGC | 1.13
TCTTGTTGTA | 0.972
TCATCAAATG | 1.06
TTTTTATAC | 1.06
TTATGCCTGC | 1
GCAGCACCAT | 1.12
GATATGTTAT | 0.964
